Out of some 150,000 compounds screened, about 540 (0.36%) showed an effect of 50% or more. The list shows a part of the results.
System: Plasmodium falciparum
Assay: Primary screen in NF54 nanoGlo assay, in single point, at 2uM, 72h; a lower Z score goes with more inhibition
Type: functional, Erythrocyte
Details: timepoint 72 hour

SMILES	% Inhibition [%]	Z score
COc1cc(C)ccc1C(=O)Nc1cccc2c1CCO2	2	-0.24
CCOc1cccc(CNc2ccc(C(=O)NC)cc2C)n1	-13	1.42
Cn1ccc2c(-c3ncccc3C(=O)N3C[C@@H]4CC[C@H]3C4)ccnc21	-3	0.63
O=C1CCC(c2ccccc2)(c2ccccc2)CN1CCCN1CCOCC1	-6	1.03
Cc1noc(C)c1CNC[C@H]1CN(C)CCO1	-9	1.24
O=C(N[C@H]1CC[C@@H](O)C1)c1ccc(-c2ccc3c(c2)OCCO3)s1	-10	1.08
CCN(CC)Cc1cnc2c(C(=O)N(C)C3Cc4ccccc4C3)cnn2c1	-6	0.83
CC(C(=O)OC(C)(C)C)N1[C@@H]2CC[C@H]1CN(C)CC2 (some centres undefined)	-2	0.27
O[C@H]1CN(Cc2ccccc2Cn2cccn2)C[C@@H]1F	-12	1.19
CN(c1cnn(C)c1)S(=O)(=O)c1ccccc1	-12	1.93
COc1ccccc1N1CCN(c2ncccc2CNC(=O)[C@@H]2CCCO2)CC1	-1	0.12
Cc1ncc(NC(=O)N2CCC[C@](C)(c3ccccc3)CC2)cn1	-6	0.93
Cc1nnc(CN[C@@H](Cc2ccccc2)c2ccc(C)c(C)c2)o1	11	-0.96
CCN1CCN(Cc2nc(CC(C)C)nn2-c2ccc(OC)cc2)CC1	-15	1.93
Cc1noc(C)c1C(=O)NCc1ccccc1CN1CCOCC1	-5	0.74
Cc1ccc(N[C@@](C)(C(=O)NCCn2cncn2)c2ccccc2)cc1	-18	2.36
Cc1[nH]nc2c1N[C@H](c1cc(F)ccc1Br)NC2=O	-18	2
COC(=O)[C@@H](Cc1ccccc1)NC(=O)[C@H]1CCC(=O)N1C(=O)OCc1ccccc1	0	-0.03
CN(C1CCCC1)S(=O)(=O)c1ccc2c(c1)C(=O)Nc1ccccc1O2	-12	1.71
O=S(=O)(NCC1=CCCCC1)c1ccc(Cl)cc1	7	-0.86
CCNCc1ccc(Br)cc1	-21	2.64
O=C(Nc1cc(Cc2ccccc2)ccc1O)C1CCC(O)CC1 (centres undefined)	6	-0.65

SMILES	% Inhibition [%]	Z score
C[C@@](N)(C(=O)Nc1cc(F)ccc1O)C1CC1	-4	0.76
CC[C@H](C)CS(=O)(=O)N1CCC(O)(CC)CC1	28	-3.51
Cc1ccc(S(=O)(=O)N[C@H](C(=O)NC[C@H]2CC[C@H](C(=O)O)CC2)C(C)C)cc1	-15	1.98
O=C(Nc1cnn(C(F)F)c1)c1cc(C2CCCCC2)n[nH]1	2	-0.48
Cc1nn(C)c2nc(NC3CCN(CCN(C)C)CC3)sc12	-2	0.29
CC(C)(C)N(CCC#N)C(=O)c1cscn1	-4	0.47
Cc1cc2c(c(-c3nc(C)cnc3C)c1)O[C@@H](CN)C2	-2	0.39
Cc1ccc(CN2C[C@]34C=C[C@H](O3)[C@@H](C(=O)NCc3ccccc3Cl)[C@H]4C2=O)cc1	-10	1.5
O=C(CCc1nc(C2CCCC2)no1)Nc1cccc(-c2ncco2)c1	-21	3.17
O=C(c1cccc(C(F)(F)F)c1)N1C[C@@H]2C[C@H]1C[C@@H]2NS(=O)(=O)c1ccccc1	1	-0.16
N#Cc1cccnc1N1CCC(Oc2ccc3ncccc3c2)(C(=O)O)CC1	0	0.07
C[C@H]1CN(S(=O)(=O)c2ccc3c(c2)CC(=O)N3)CCO1	-5	0.67
C[C@](O)(CNS(=O)(=O)Cc1ccccc1)C(c1ccccc1)c1ccccc1	28	-3.72
Cc1ccc(O)c(CNC2(c3c(F)cccc3F)CCC2)n1	1	-0.18
CC(=O)Nc1cccc(NC(=O)[C@H](Cc2ccccc2)Nc2nc(C)cc(C)n2)c1	-13	1.66
Cc1ccc(CCC(=O)N2CCc3nc[nH]c(=O)c3C2)c(C)c1	-6	0.83
Cn1cc([C@H]2CCCN(C(=O)c3ccc4ncsc4c3)C2)cn1	5	-0.68
CCOCc1nc(C)cc(NCC2(O)CCC(C)(C)CC2)n1	-2	0.19
Cc1cc(C(=O)N(CCO)Cc2ccc(C)s2)cc(C)n1	-14	2.21
CCC(c1ccccc1)c1nc(C2CC(=O)N(c3ccccc3)C2)no1 (centres undefined)	4	-0.43
Cc1ccc(CNC(=O)c2nnc(CS(=O)(=O)c3ccccc3)o2)cc1	16	-2.44
CCN(Cc1nc(-c2ccco2)no1)[C@H]1CCS(=O)(=O)C1	-11	2.08

SMILES	% Inhibition [%]	Z score
Cc1nc(-c2cccnc2)nc(NCCNC(=O)C(C)(C)C)c1C	31	-0.47
COCC1(CNC(=O)CN2C[C@@H]3CC[C@H]2C3)CCC1	-6	1.08
CN(CCC(=O)Nc1c(Cl)cccc1Cl)Cc1ccsc1	7	-1.07
CCNC(=O)CN(CC)CC(=O)Nc1cccc(CC)c1	-3	0.39
Cc1cc(F)cc(NC(=O)N2CCCN(C(=O)C(F)(F)F)CC2)c1	-11	1.45
CCOC(=O)c1cc(NC(=O)C(c2ccccc2)c2ccccc2)ccc1N1CCOCC1	-7	0.81
CN(C(=O)c1ccc(S(=O)(=O)N2CCOCC2)cc1)c1ncccn1	-5	0.73
CC(C)(C)c1csc(CNC2(CCO)CCOCC2)n1	-2	0.2
CCOc1cnc(-c2ccc(OC)cc2)[nH]1	-28	3.31
CC(C)c1cc(C(=O)N(C)C2C3CCOC3C2(C)C)cc(O)n1 (centres undefined)	27	-3.08
O=C(CN1CCN(c2ccc(F)cc2)C1=O)NCc1cccs1	-1	0.15
COc1cc(OC)c(NC(=O)N2CCCCO2)cc1Br	-4	0.47
Cc1cccc(OCC(=O)c2ccc3c(c2)N(C(C)C(=O)NCC2CCCO2)C(=O)CO3)c1C (centres undefined)	-8	1.55
CC(=O)c1ccc(N2CC[C@H](c3ccccc3Cl)C2)nc1	2	-0.26
CC(C)S(=O)(=O)[C@@H](C)C(=O)NCc1ccco1	-16	2.11
Cc1cccc(NC(=O)NC(=O)COC(=O)C[C@H](C)c2c(C)n[nH]c2C)c1C	7	-1.1
Nc1ccc(Br)c2c1CCCC2	-2	0.34
Cn1nnc(COc2nc(C(C)(C)C)no2)n1	-8	1.29
CO[C@H]1CN(C)C[C@@H]1Nc1nc(N)nc(C)c1Cl	-9	1.15
CCn1nccc1-c1nc(C2CCN(C(=O)c3ccoc3)CC2)no1	-20	3.84
N#Cc1ccnc(N2CCC(C(=O)O)(n3cnc4ccccc43)CC2)c1	-1	0.19
CC(C)[C@H](Cn1ccnc1)NC(=O)c1cnnn1-c1ccccc1	-4	0.64

SMILES	% Inhibition [%]	Z score
COCc1ccc(CN[C@H](C)C(=O)OC)cc1	-3	0.38
Cn1nc(C(F)(F)F)cc1CN1CC(=O)NCC1(C)C	-7	1.4
CC(C)c1nccn1CC1CCN(C(=O)CN2C(=O)CCC2=O)CC1	-5	0.67
O=C(CCc1ccccc1)N1CCCCCCC1	-13	1.85
O=C(CCNC(=O)OCC(F)(F)F)Nc1cc(Cl)cc(Cl)c1	10	-1.29
COc1cc(=O)n2c(c1C(=O)NCc1ccc(C(F)(F)F)cc1)CCCCC2	-13	1.5
CC(C)c1nccn1-c1ccncc1Cl	-4	0.4
O=C(CC1(N2Cc3ccccc3C2=O)CCCCC1)NCCc1ccc(F)cc1	7	-1
NC(=O)C1CCN(C(=O)OCC(F)(F)F)CC1	6	-0.86
Cc1cnc(C2CN(S(=O)(=O)c3ccc4c(c3)CCC4)C2)n1CC1CC1	-14	1.81
Cc1ccc(-n2cc(NC(=O)NCCc3cscn3)cn2)c(C)c1	5	-0.96
Cc1nscc1C(=O)Nc1ccc(Br)c(C)c1F	-7	1.31
CN(C)c1ccc(N2CCC(C(=O)N3CCN(c4cccc(Cl)c4)CC3)CC2)nn1	-18	3.29
Cc1ccc2c(c1)[C@H](Cc1nc3ccccc3c(=O)n1-c1ccccc1)C(=O)N2C	5	-0.6
CN(CC(F)(F)F)C(=O)CN1C(=O)c2ccccc2C(C)(C)C1=O	2	-0.16
Cn1c(C(=O)NCCc2c[nH]c3ccccc23)cc2c(-c3cccs3)nn(-c3ccccc3)c21	-7	1.04
Cn1nc(-c2ccncc2)nc1-c1cscn1	1	-0.19
Cc1nc(-c2ccncc2)nn1[C@H]1CCCC[C@@H]1O	-8	1.53
N#Cc1ccccc1-c1ccc(CN2CCC(CN3CCOCC3)CC2)o1	-6	0.75
Cc1cccnc1C(=O)N1CCC(Oc2ccc3ncccc3c2)(C(=O)O)CC1	-4	0.77
CCCc1nc(CN[C@H](c2ccccc2)C2(CO)CCOCC2)no1	-6	0.57

From ChEMBL document CHEMBL4888484, “Replenishing the malaria drug discovery pipeline: Screening and hit evaluation of the MMV Hit Generation Library 1 (HGL1) against asexual blood stage Plasmodium falciparum ,using a nano luciferase reporter read-out” (2022)
